Measurements as given in US20230192795A1 (Hoffmann-La Roche, published 2023).

Assays:
[1] = biological target: T1, Human IL7Ra-IL2Rγ-Fc heterodimer (human, biotin on the avi tag); test: SPR, captured from supernatant, 800 nM receptor-Fc single injection
T1 construct: Extracellular domains of IL-7Ralpha and IL-2Rgamma fused to Fc knob and Fc hole; also called hu IL7Ra-IL2Rγ-Fc avi biotin; human IL7Ra-IL2Rg-Fc biotin
Description: Surface Plasmon Resonacne (SPR) experiments were performed on a Biacore T200 with HBS-EP+ as running buffer (0.01 M HEPES pH 7.4, 0.15 M NaCl, 0.005% Surfactant P20 (BR-1006-69, GE Healthcare)). Fc specific antibodies (Roche internal) were directly immobilized by amine coupling on a CM5 chip (GE Healthcare). The PDI-IL7 constructs were captured from supernatants for 120 s at 100 nM. […] Only the extracellular domains were fused to Fc domains, produced in HEK Expi Cells and purified by two-step column chromatography including affinity purification via Protein A followed by size-exclusion chromatography. A single injection of 800 nM hu IL 7Ra-IL2Rγ-Fc heterodimer was passed over the ligand at 30 µ1/min for 240 sec to record the association phase. The dissociation phase was monitored for 360 s and triggered by switching from the sample solution to HBS-EP+. The chip surface was regenerated after every cycle using one injection of 10 mM glycine pH 2 for 60 sec. Bulk refractive index differences were corrected for by subtracting the response obtained on the reference flow cell 1. The response units after the capture step and at the end of the association phase were recorded and a ratio of binding to capture was calculated. The single binding curves were fitted in the dissociation phase to obtain a koff for ease of comparison (Biacore Evaluation software, GE Healthcare).
The ratio of binding to capture was calculated and the dissociation phase was fitted to a single curve to support characterization of the off-rate. All N-glycosylation knock-out variants (single and triple mutants) have an off-rate similar to wild-type IL7 (Table 13).

[2] = biological target: T1, Human IL7Ra-IL2Rγ-Fc heterodimer; test: SPR (Example 2.4), captured via anti-P329G, receptor-Fc 2.34-300 nM, 1:1 fit, single value
Description: (§1) SPR experiments were performed on a Biacore 8 K with HBS-EP + 1 mg/ml BSA as running buffer. Anti-P329G Fc specific antibody (Roche internal) was directly immobilized by amine coupling on a C1 chip (Cytiva). The PD1-IL7 constructs were captured for 140 s at 5 nM. […] The dissociation phase was monitored for 800 s and triggered by switching from the sample solution to running buffer. The chip surface was regenerated after every cycle using two injections of 10 mM glycine pH 2 for 60 sec. Bulk refractive index differences were corrected for by subtracting the response obtained on the reference flow cell (containing immobilized anti P329G Fc specific IgG only). The affinity constants were derived from the kinetic rate constants by fitting to a 1:1 Langmuir binding using the Biacore evaluation software (Cytiva).

[3] = biological target: T2, IL-7Rα/IL-2Rγ on human T cells (human, UniProt P16871 21-459; P31785 23-369); test: cell-based or functional assay
T2 sequence (looked up) 1: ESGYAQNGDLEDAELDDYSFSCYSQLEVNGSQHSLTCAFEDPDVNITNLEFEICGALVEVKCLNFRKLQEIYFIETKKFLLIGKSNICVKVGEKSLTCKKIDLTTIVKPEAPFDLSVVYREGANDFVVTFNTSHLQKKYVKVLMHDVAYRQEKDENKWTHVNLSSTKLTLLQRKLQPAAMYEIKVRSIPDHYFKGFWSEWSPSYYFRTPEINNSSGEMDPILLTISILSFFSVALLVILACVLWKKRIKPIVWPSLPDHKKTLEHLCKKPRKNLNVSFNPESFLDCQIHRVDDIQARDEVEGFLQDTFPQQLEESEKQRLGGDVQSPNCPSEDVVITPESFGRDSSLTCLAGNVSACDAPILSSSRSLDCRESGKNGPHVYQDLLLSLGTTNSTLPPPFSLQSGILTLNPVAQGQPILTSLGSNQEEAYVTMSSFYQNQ
T2 sequence (looked up) 2: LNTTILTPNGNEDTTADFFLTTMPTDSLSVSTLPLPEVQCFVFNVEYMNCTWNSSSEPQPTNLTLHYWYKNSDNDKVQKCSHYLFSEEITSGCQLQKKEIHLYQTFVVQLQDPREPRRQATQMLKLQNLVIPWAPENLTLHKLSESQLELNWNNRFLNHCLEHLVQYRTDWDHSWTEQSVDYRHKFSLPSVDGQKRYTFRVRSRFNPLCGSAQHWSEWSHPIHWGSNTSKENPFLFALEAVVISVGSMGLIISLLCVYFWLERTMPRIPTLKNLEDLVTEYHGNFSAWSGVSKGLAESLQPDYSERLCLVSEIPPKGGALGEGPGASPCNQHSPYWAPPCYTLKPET

[4] = biological target: T1, Human IL7Ra-IL2Rγ-Fc heterodimer; test: SPR (Example 2.4), captured via anti-P329G, receptor-Fc 2.34-300 nM, 1:1 fit
Description: as §1
Four IL7 single variants, two IL7 double variants and IL7 wild-type were compared to four reference molecules with modified IL7 for binding to human IL7 receptor (Table 23). The affinity of the IL7 variants to the IL7 receptor was determined using the recombinant heterodimer of the extracellular domains of the IL7 receptor alpha chain and the common IL2 receptor gamma chain.

B1: PD1-IL7-VAR29 (N-Glc KO, T72A) (other)
light: DIVMTQSPDSLAVSLGERATINCKASESVDTSDNSFIHWYQQKPGQSPKLLIYRSSTLESGVPDRFSGSGSGTDFTLTISSLQAEDVAVYYCQQNYDVPWTFGQGTKVEIKRTVAAPSVFIFPPSDEQLKSGTASVVCLLNNFYPREAKVQWKVDNALQSGNSQESVTEQDSKDSTYSLSSTLTLSKADYEKHKVYACEVTHQGLSSPVTKSFNRGEC
heavy 1: EVQLLESGGGLVQPGGSLRLSCAASGFSFSSYTMSWVRQAPGKGLEWVATISGGGRDIYYPDSVKGRFTISRDNSKNTLYLQMNSLRAEDTAVYYCVLLTGRVYFALDSWGQGTLVTVSSASTKGPSVFPLAPSSKSTSGGTAALGCLVKDYFPEPVTVSWNSGALTSGVHTFPAVLQSSGLYSLSSVVTVPSSSLGTQTYICNVNHKPSNTKVDKKVEPKSCDKTHTCPPCPAPEAAGGPSVFLFPPKPKDTLMISRTPEVTCVVVDVSHEDPEVKFNWYVDGVEVHNAKTKPREEQYNSTYRVVSVLTVLHQDWLNGKEYKCKVSNKALGAPIEKTISKAKGQPREPQVCTLPPSRDELTKNQVSLSCAVKGFYPSDIAVEWESNGQPENNYKTTPPVLDSDGSFFLVSKLTVDKSRWQQGNVFSCSVMHEALHNHYTQKSLSLSPGK
heavy 2: EVQLLESGGGLVQPGGSLRLSCAASGFSFSSYTMSWVRQAPGKGLEWVATISGGGRDIYYPDSVKGRFTISRDNSKNTLYLQMNSLRAEDTAVYYCVLLTGRVYFALDSWGQGTLVTVSSASTKGPSVFPLAPSSKSTSGGTAALGCLVKDYFPEPVTVSWNSGALTSGVHTFPAVLQSSGLYSLSSVVTVPSSSLGTQTYICNVNHKPSNTKVDKKV[human IgG1 Fc with changes left out]GGGGSGGGGSGGGGSDCDIEGKDGKQYESVLMVSIDQLLDSMKEIGSNCLNNEFNFFKRHICDANKEGMFLFRAARKLRQFLKMNSAGDFDLHLLKVSEGTTILLNCTGQVKGRKPAALGEAQPTKSLEENKSLKEQKKLNDLCFLKRLLQEIKTCWNKILMGTKEH
notes: Format as m1; IL-7 with T72A (N-glycosylation site knock-out)
- koff [1]: 0.000645 s⁻¹

B2: PD1-IL7-VAR31 (N-Glc KO, S118A) (other)
light: B1 light
heavy 1: B1 heavy 1
heavy 2: EVQLLESGGGLVQPGGSLRLSCAASGFSFSSYTMSWVRQAPGKGLEWVATISGGGRDIYYPDSVKGRFTISRDNSKNTLYLQMNSLRAEDTAVYYCVLLTGRVYFALDSWGQGTLVTVSSASTKGPSVFPLAPSSKSTSGGTAALGCLVKDYFPEPVTVSWNSGALTSGVHTFPAVLQSSGLYSLSSVVTVPSSSLGTQTYICNVNHKPSNTKVDKKV[human IgG1 Fc with changes left out]GGGGSGGGGSGGGGSDCDIEGKDGKQYESVLMVSIDQLLDSMKEIGSNCLNNEFNFFKRHICDANKEGMFLFRAARKLRQFLKMNSTGDFDLHLLKVSEGTTILLNCTGQVKGRKPAALGEAQPTKSLEENKALKEQKKLNDLCFLKRLLQEIKTCWNKILMGTKEH
notes: Format as m1; IL-7 with S118A (N-glycosylation site knock-out)
- koff [1]: 0.000815 s⁻¹

B3: PD1-IL7-VAR30 (N-Glc KO, T93A) (other)
light: B1 light
heavy 1: B1 heavy 1
heavy 2: EVQLLESGGGLVQPGGSLRLSCAASGFSFSSYTMSWVRQAPGKGLEWVATISGGGRDIYYPDSVKGRFTISRDNSKNTLYLQMNSLRAEDTAVYYCVLLTGRVYFALDSWGQGTLVTVSSASTKGPSVFPLAPSSKSTSGGTAALGCLVKDYFPEPVTVSWNSGALTSGVHTFPAVLQSSGLYSLSSVVTVPSSSLGTQTYICNVNHKPSNTKVDKKV[human IgG1 Fc with changes left out]GGGGSGGGGSGGGGSDCDIEGKDGKQYESVLMVSIDQLLDSMKEIGSNCLNNEFNFFKRHICDANKEGMFLFRAARKLRQFLKMNSTGDFDLHLLKVSEGTTILLNCAGQVKGRKPAALGEAQPTKSLEENKSLKEQKKLNDLCFLKRLLQEIKTCWNKILMGTKEH
notes: Format as m1; IL-7 with T93A (N-glycosylation site knock-out)
- koff [1]: 0.000756 s⁻¹

B6: PD1-IL7-VAR32 (N-Glc KO, T72A, T93A, S118A) (other)
light: B1 light
heavy 1: B1 heavy 1
heavy 2: EVQLLESGGGLVQPGGSLRLSCAASGFSFSSYTMSWVRQAPGKGLEWVATISGGGRDIYYPDSVKGRFTISRDNSKNTLYLQMNSLRAEDTAVYYCVLLTGRVYFALDSWGQGTLVTVSSASTKGPSVFPLAPSSKSTSGGTAALGCLVKDYFPEPVTVSWNSGALTSGVHTFPAVLQSSGLYSLSSVVTVPSSSLGTQTYICNVNHKPSNTKVDKKV[human IgG1 Fc with changes left out]GGGGSGGGGSGGGGSDCDIEGKDGKQYESVLMVSIDQLLDSMKEIGSNCLNNEFNFFKRHICDANKEGMFLFRAARKLRQFLKMNSAGDFDLHLLKVSEGTTILLNCAGQVKGRKPAALGEAQPTKSLEENKALKEQKKLNDLCFLKRLLQEIKTCWNKILMGTKEH
notes: Format as m1; IL-7 with T72A, T93A and S118A
- koff [1]: 0.000477 s⁻¹

The next lines start with the values.

- Kd [2]: 0.746 nM
- koff [2]: 0.000277 s⁻¹
- kon [2]: 372000 M⁻¹ s⁻¹
- STAT5-P Area (PD1+) [3]: 113
- STAT5-P Area (PD1 blocked) [3]: 81.6
B4: Reference Molecule 5 (other)
light: B1 light
heavy 1: B1 heavy 1
heavy 2: EVQLLESGGGLVQPGGSLRLSCAASGFSFSSYTMSWVRQAPGKGLEWVATISGGGRDIYYPDSVKGRFTISRDNSKNTLYLQMNSLRAEDTAVYYCVLLTGRVYFALDSWGQGTLVTVSSASTKGPSVFPLAPSSKSTSGGTAALGCLVKDYFPEPVTVSWNSGALTSGVHTFPAVLQSSGLYSLSSVVTVPSSSLGTQTYICNVNHKPSNTKVDKKV[human IgG1 Fc with changes left out]GGGGSGGGGSGGGGSDCDIEGKDGKQYESVLMVSIDQLLDSMKEIGSNCLNNEFNFFKRHICDANKEGMFLFRAARKLRQFLKMNSTGEFDLHLLKVSEGTTILLNCTGQVKGRKPAALGEAQPTKSLEENKSLKEQKKLNDLCFLKRLLQEIKTCWNKILMGTKEH
notes: Format as m1; also called P1AF9647-027

- Kd [4]: 1.46 nM
- koff [4]: 0.000441 s⁻¹
- kon [4]: 303000 M⁻¹ s⁻¹
- STAT5-P Area (PD1+) [3]: 96.1
- STAT5-P Area (PD1 blocked) [3]: 62.1
B5: Reference Molecule 8 (other)
light: B1 light
heavy 1: B1 heavy 1
heavy 2: EVQLLESGGGLVQPGGSLRLSCAASGFSFSSYTMSWVRQAPGKGLEWVATISGGGRDIYYPDSVKGRFTISRDNSKNTLYLQMNSLRAEDTAVYYCVLLTGRVYFALDSWGQGTLVTVSSASTKGPSVFPLAPSSKSTSGGTAALGCLVKDYFPEPVTVSWNSGALTSGVHTFPAVLQSSGLYSLSSVVTVPSSSLGTQTYICNVNHKPSNTKVDKKV[human IgG1 Fc with changes left out]GGGGSGGGGSGGGGSDCDIEGKDGKQYESVLMVSIDQLLDSMKEIGSNCLNNEFNFFKRHICDANKEGMFLFRAARKLRQFLKMNSTGDFDLHLLKVSEGTTILLNCTGQVKGRKPAALGEAQPTKSLEENKSLKEQKKLNDLCFLKRLLQEIKTCHNKILMGTKEH
notes: Format as m1; IL-7 with W142H; also called P1AF9650-004

One block for each binder: values may come before it.
